# Laboratory results: PubChem BioAssay AID1768 (National Center for Advancing Translational Sciences (NCATS), 2009)
# In all, about 270,000 compounds went through this assay and about 620 (0.23%) were called active. This list was built around the results that the source calls inconclusive (neither active nor inactive); the mix of calls is not that of the screen. The call rests on the fitted dose curve; in most records, active means well fitted inhibition curve with a large enough effect in the polarisation, with a control signal flat (not every such curve was filed as active); inconclusive means small, poorly fitted or top-dose-only effect, or effect the other way, or a change in a side signal; inactive means no such curve, though single readings can be large or run the other way; the % refers to the polarisation. Where the call is inconclusive, the potency comes from a doubtful curve fit. A note “side channel” means that the fit belongs to a control or component signal, not to the main read-out.
# Target: Menin (Homo sapiens) (UniProt O00255)
# UniProt O00255, sequence (O00255 whole entry, looked up): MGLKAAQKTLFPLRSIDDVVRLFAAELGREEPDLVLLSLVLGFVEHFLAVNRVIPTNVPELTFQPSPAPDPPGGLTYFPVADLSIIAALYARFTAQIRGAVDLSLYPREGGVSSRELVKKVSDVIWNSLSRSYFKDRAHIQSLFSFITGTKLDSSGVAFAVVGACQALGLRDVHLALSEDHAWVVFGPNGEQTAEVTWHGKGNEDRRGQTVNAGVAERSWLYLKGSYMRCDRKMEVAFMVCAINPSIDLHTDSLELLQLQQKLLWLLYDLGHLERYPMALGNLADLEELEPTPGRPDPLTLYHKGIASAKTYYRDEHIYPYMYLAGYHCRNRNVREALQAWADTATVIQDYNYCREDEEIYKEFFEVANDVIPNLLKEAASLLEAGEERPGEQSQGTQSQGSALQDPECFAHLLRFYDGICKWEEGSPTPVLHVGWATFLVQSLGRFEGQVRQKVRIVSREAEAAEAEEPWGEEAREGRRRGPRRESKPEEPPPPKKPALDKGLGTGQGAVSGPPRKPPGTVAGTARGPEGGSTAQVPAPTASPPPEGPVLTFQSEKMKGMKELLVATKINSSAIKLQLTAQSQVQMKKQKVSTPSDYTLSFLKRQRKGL
# Experiment: qHTS Assay for Inhibitors Targeting the Menin-MLL Interaction in MLL Related Leukemias: Competition With Texas Red Labeled MLL-derived Mutant Peptide; on FP activity change, negative = inhibition: % of control where 0% means no effect
# Conditions: fluorescence polarization; FP activity change, negative = inhibition: at 61.6 µM (top of the series)
# Potency means the concentration at half of the fitted maximal effect; tags describe the fitted curve by direction and shape or compound fluorescence and quenching.
Structure (SMILES),Potency,"FP activity change, negative = inhibition"
O=C(Cn1nc(-c2ccccc2)ccc1=O)Nc1cccc(NC(=O)c2ccccn2)c1,"inconclusive: 0.708 µM [inhibitor, full curve, poor fit]",
Cc1ccc([N+](=O)[O-])cc1N(CC(=O)Nc1ccc(S(=O)(=O)Nc2cccc(C(F)(F)F)c2)cc1)S(C)(=O)=O,"inconclusive: 11.2 µM [quencher, side channel, partial curve]",
Cc1ccc(NC(=S)C2=C(O)c3ccccc3N(C)S2(=O)=O)cc1,"inconclusive: 17.8 µM [quencher, partial curve]",
Cc1[nH]c2ccc(-c3nnc(SCC(=O)c4ccccc4F)o3)cc2c1C,"inconclusive: 8.91 µM [quencher, side channel, full curve]",
CN(CC#CCC(c1ccccc1)c1ccccc1)C(C)(C)C,"inconclusive: 31.6 µM [inhibitor, single point]",
COc1ccc(-c2nnc(NC(=O)c3ccc(S(=O)(=O)N4CCCc5ccccc54)cc3)o2)cc1,"inconclusive: 14.1 µM [quencher, side channel, partial curve]",
COC(=O)c1ccc(CNC(=O)COC(=O)CCC2CCCC2)cc1,,inactive: -7.9%
O=C(NNC(=O)c1sc2cccc(Cl)c2c1Cl)Nc1ccccc1,"inconclusive: 5.01 µM [inhibitor, full curve, poor fit]",
COc1ccc(-c2cc(-c3ccc(Cl)cc3)n[nH]2)c(O)c1,"inconclusive: 14.1 µM [quencher, side channel, partial curve]",
O=C(O)c1ccccc1N1C(=O)C2C3c4ccccc4C(Br)(c4ccccc43)C2C1=O (stereo unspecified),"inconclusive: 20 µM [quencher, side channel, single point]",
COc1ccc(CCN(C)CC(O)COc2c(C)ccc(C)c2C)cc1OC (stereo unspecified),"inconclusive: 25.1 µM [inhibitor, partial curve]",
Cc1ccc(O)c(-c2cc3ccccc3[nH]2)c1,"inconclusive: 14.1 µM [quencher, side channel, partial curve]",
CCCCN1C(=O)/C(=C/C=C2/C=Cc3ccccc3N2CC)SC1=S,"inconclusive: 14.1 µM [quencher, side channel, partial curve]",
N#CCC(=O)N/N=C/c1ccc(N2N=C(c3ccccc3)CC2c2ccccc2)cc1 (stereo unspecified),"inconclusive: 35.5 µM [quencher, side channel, partial curve]",
COc1ccc(C[C@H]2CN3C(=NC[C@@H]3Cc3ccccc3)N2CCNC(=O)c2ccc(C)c(Br)c2)cc1,"inconclusive: 2.51 µM [fluorescent, side channel, full curve]",
O=C(O)c1ccc(NS(=O)(=O)c2ccc3c(c2)C2C=CCC2C(c2ccccc2F)N3)cc1 (stereo unspecified),"inconclusive: 12.6 µM [quencher, side channel, partial curve]",
CC1=NN2C(=N)/C(=C\c3cc(C)n(-c4ccccc4)c3C)C(=O)N=C2S1,"inconclusive: 39.8 µM [inhibitor, single point]",
CC(C)c1ccc(Nc2nnc(SCC(=O)Nc3ncc(S(=O)(=O)c4ccc([N+](=O)[O-])cc4)s3)s2)cc1,"inconclusive: 10 µM [quencher, side channel, partial curve]",
O=C(CSc1cccc(C(F)(F)F)c1)NC(=O)NCc1ccco1,"inconclusive: 20 µM [quencher, side channel, single point]",

Structure (SMILES),Potency,"FP activity change, negative = inhibition"
CCc1nonc1NC(=O)c1oc2c(C)c(C)ccc2c1C,"inconclusive: 39.8 µM [fluorescent, single point]",
COc1ccc([C@]23Cc4cc(OC)c(OC)cc4C(O2)c2c(c4ccccc4oc2=O)O3)cc1,"inconclusive: 4.47 µM [quencher, side channel, single point]",
CCn1c(COc2ccccc2)nnc1SCC(=O)NC1CCCCC1,,inactive: -17.2%
O=C(Nc1ccc(Cl)cc1)Nc1ccc(S(=O)(=O)Nc2ncccn2)cc1,"inconclusive: 20 µM [quencher, side channel, single point]",
CCOC(=O)CCc1c(C)c2ccc(OCC)c(C)c2oc1=O,,inactive: 0.87%
CC(=O)c1cccc(NC(=S)NCc2ccco2)c1,"inconclusive: 17.8 µM [quencher, side channel, partial curve]",
c1ccc(CN2CCC(Nc3nc(-c4cccs4)nc4ccccc34)CC2)cc1,,inactive: 36.2%
CC(C)(C)NC(=O)NC(=O)CN1CCN(c2ncc(C(F)(F)F)cc2Cl)CC1,"inconclusive: 31.6 µM [fluorescent, side channel, partial curve]",
O=C(N/N=C/c1ccccn1)c1ccc(NC(=O)c2cccc([N+](=O)[O-])c2)cc1,"inconclusive: 6.31 µM [quencher, side channel, partial curve]",
CC(C)(COC(=O)Nc1ccccc1)COC(=O)Nc1ccccc1,,inactive: 22.6%
O=C1NN(c2ccccc2)C(=O)/C1=C/c1ccc(-c2ccc(Cl)c(C(=O)O)c2)o1,"inconclusive: 28.2 µM [quencher, side channel, single point]",
CCn1c(SCC(=O)N2CCN(C)CC2)nc2c1c(=O)n(C)c(=O)n2C,"inconclusive: 3.55 µM [quencher, side channel, single point]",
O=C(C(c1ccccc1)c1ccccc1)N1CCCc2ccccc21,"inconclusive: 25.1 µM [fluorescent, side channel, single point]",
Cn1c(-c2c(N)n(-c3ccccc3)c3nc4ccccc4nc23)nc2ccccc21,"inconclusive: 3.55 µM [quencher, side channel, full curve]",
Cc1ccc(-c2cc(-c3ccccc3)c3c(N)c(S(C)(=O)=O)sc3n2)cc1,"inconclusive: 35.5 µM [inhibitor, single point]",
Cc1[nH]n(-c2ccccc2)c(=S)c1C=NCCCN=Cc1c(C)[nH]n(-c2ccccc2)c1=S,"inconclusive: 25.1 µM [quencher, side channel, single point]",
O=C(N=Nc1c(O)[nH]c2ccccc12)c1cccc(S(=O)(=O)Nc2ccccc2Cl)c1,"inconclusive: 28.2 µM [quencher, side channel, partial curve]",
O=C(COc1ccc2ccccc2c1)Nc1ccc(Br)cc1C(=O)O,"inconclusive: 22.4 µM [quencher, side channel, single point]",
CC1=NN(c2ccccc2)C(=O)C1C(=O)c1cc([N+](=O)[O-])cc([N+](=O)[O-])c1 (stereo unspecified),"inconclusive: 15.8 µM [quencher, side channel, partial curve]",

Structure (SMILES),Potency,"FP activity change, negative = inhibition"
O=C(Nc1ccc(Cl)cc1)[C@@H]1[C@@H]2C(=O)N(c3ccc(Cl)cc3)C(=O)[C@@H]2[C@H]2C=CC=NN21,"inconclusive: 14.1 µM [quencher, side channel, partial curve]",
CCCn1c(=O)[nH]c(=O)c2c1nc(-c1ccc(OC(F)F)c(OC)c1)n2CCOC,,inactive: -2.33%
C/C(=N\Nc1nncc2ccccc12)c1ccc(C(C)(C)C)cc1,"inconclusive: 14.1 µM [quencher, partial curve]",
COc1ccc(CN2CCN(Cc3cccn3-c3ncccn3)CC2CCO)c(C)c1C (stereo unspecified),"inconclusive: 3.98 µM [inhibitor, partial curve]",
COc1ccc(/C=N/NC(=O)c2cccnc2)cc1CN1CCCc2ccccc21,"inconclusive: 14.1 µM [quencher, side channel, partial curve]",
COc1ccc(/C=C/C(=O)NCC(=O)N=Nc2c(O)[nH]c3ccc([N+](=O)[O-])cc23)cc1,"inconclusive: 22.4 µM [quencher, side channel, partial curve]",
COc1cc2nc(=S)n(CCCN3CCOCC3)c(N)c2cc1OC,,inactive: -6.88%
Cc1nc(CNS(=O)(=O)c2ccc3c(c2)CCCC3)cs1,"inconclusive: 14.1 µM [inhibitor, partial curve, poor fit]",
CC(C)Cc1cc(C(=O)N2CCC(N3CCC(C(=O)NC4CC4)CC3)CC2)n[nH]1,"inconclusive: 1.26 µM [fluorescent, side channel, full curve, poor fit]",
O=c1c2cc(Br)ccc2[nH]c(=S)n1Cc1cccnc1,"inconclusive: 39.8 µM [inhibitor, single point]",
CC(C)c1nc(SCC(=O)Nc2cccc(C(=O)O)c2)c2c3c(sc2n1)CCCC3,"inconclusive: 28.2 µM [quencher, side channel, single point]",
COc1ccc(-c2cc(C(=O)Nc3ccc(C)c(C)c3)no2)cc1,"inconclusive: 39.8 µM [fluorescent, side channel, single point]",
Cc1cc(SCC#N)n2nc(C)c(-c3ccccc3)c2n1,"inconclusive: 25.1 µM [quencher, side channel, single point]",
O=C(Nc1ccc(Oc2cccc3ccccc23)cc1)c1ccco1,"inconclusive: 10 µM [quencher, side channel, partial curve]",
CCCCNC(=O)c1onc(CSc2ccccc2)c1C(=O)O,"inconclusive: 8.91 µM [quencher, side channel, partial curve]",
COc1ccc(-n2nc3c(=O)[nH][nH]c3cc2=O)cc1,"inconclusive: 20 µM [quencher, side channel, partial curve]",
Cc1cccc(-n2ccc(=O)c(C(=O)O)n2)c1,"inconclusive: 28.2 µM [inhibitor, single point]",
CCOC(=O)c1cc(-c2ccco2)nc2c1c(C)nn2-c1ccccc1,"inconclusive: 6.31 µM [quencher, side channel, partial curve]",
